{"source": "paper PMC4336329", "about": "(PLoS ONE, 2015)", "note": "Among all 310,000 compounds or so, about 14,000 (4.5%) showed an effect of 50% or more. Effects have a minus sign here. The list shows a part of the results.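 Also: peak tail current of the secondary pulse compared with the same well before compound.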"}
{"biological_target": "human ether-à-go-go-related gene (hERG) potassium channel (human, UniProt Q12809)", "sequence (Q12809 whole entry, looked up)": "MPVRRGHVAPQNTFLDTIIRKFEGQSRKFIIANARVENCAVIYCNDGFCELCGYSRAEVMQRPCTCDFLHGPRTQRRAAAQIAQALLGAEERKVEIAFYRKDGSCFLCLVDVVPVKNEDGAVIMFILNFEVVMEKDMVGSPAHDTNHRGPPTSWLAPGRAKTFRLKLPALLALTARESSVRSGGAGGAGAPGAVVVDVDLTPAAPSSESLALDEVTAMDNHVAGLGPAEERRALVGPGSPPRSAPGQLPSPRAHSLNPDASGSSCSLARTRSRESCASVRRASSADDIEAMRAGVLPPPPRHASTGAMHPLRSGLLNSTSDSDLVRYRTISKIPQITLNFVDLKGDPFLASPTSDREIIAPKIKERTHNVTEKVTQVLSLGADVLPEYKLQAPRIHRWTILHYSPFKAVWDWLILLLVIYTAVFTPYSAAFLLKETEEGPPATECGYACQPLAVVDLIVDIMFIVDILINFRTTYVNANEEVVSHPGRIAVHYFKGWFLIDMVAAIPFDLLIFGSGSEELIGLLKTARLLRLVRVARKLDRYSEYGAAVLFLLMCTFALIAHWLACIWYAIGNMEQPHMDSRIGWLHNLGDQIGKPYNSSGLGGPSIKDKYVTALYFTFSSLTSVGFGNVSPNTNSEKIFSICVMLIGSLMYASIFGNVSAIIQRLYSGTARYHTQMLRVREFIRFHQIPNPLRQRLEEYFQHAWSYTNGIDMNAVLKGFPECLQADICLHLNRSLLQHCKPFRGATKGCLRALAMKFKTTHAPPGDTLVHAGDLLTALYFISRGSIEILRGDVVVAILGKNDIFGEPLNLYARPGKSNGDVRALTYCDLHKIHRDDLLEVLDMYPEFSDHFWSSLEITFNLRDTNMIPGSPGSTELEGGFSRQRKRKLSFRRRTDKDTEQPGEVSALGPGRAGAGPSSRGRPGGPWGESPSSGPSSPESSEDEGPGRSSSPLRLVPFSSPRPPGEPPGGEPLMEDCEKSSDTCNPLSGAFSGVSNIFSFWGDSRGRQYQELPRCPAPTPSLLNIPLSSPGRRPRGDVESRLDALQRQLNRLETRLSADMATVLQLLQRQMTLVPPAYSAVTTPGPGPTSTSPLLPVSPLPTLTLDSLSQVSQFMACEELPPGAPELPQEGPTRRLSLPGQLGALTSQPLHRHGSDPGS", "assay": "primary screen, population patch clamp on CHO cells stably expressing hERG", "units": {"hERG current change (%, negative = inhibition) at 10uM": "%"}}
{"smiles": "Cn1cnnc1SCC(=O)c1ccc(OC(F)F)cc1", "hERG current change (%, negative = inhibition) at 10uM": -31.1}
{"smiles": "CN1CCCC(CC2c3ccccc3Sc3ccccc32)C1.Cl.O", "note": "(stereo not drawn)", "hERG current change (%, negative = inhibition) at 10uM": -52.9}
{"smiles": "Cn1c(=O)n(C)c2cc(N3CCOCC3)c(NC(=O)c3cccc(Cl)c3)cc21", "hERG current change (%, negative = inhibition) at 10uM": 5.25}
{"smiles": "COc1ccc(Br)cc1CN(C)CC(=O)Nc1c(Cl)ccc(C)c1Cl", "hERG current change (%, negative = inhibition) at 10uM": 4.92}
{"smiles": "C/C(CC1CC(COCC(C)C)OC1=O)=N\\NC(N)=S", "note": "(stereo not drawn)", "hERG current change (%, negative = inhibition) at 10uM": 0.131}
{"smiles": "Fc1ccc(CCNC(=S)Nc2ccc(F)c(Cl)c2)cc1", "hERG current change (%, negative = inhibition) at 10uM": -16.4}
{"smiles": "CCn1cc(/C=N/NC(=O)c2ccc3c(c2)OCO3)cn1", "hERG current change (%, negative = inhibition) at 10uM": -7.39}
{"smiles": "CC(=O)NC1C(=O)N(CCN2CCOCC2)c2ccc(C)cc21", "note": "(stereo not drawn)", "hERG current change (%, negative = inhibition) at 10uM": 10.6}
{"smiles": "CCOC(=O)c1cccc(NC(=O)CCS(=O)(=O)c2cccc3nsnc23)c1", "hERG current change (%, negative = inhibition) at 10uM": -10}
{"smiles": "CN(C)S(=O)(=O)N1CCN(C(=O)N2CCCCC2)CC1", "hERG current change (%, negative = inhibition) at 10uM": 3.64}
{"smiles": "CCOC(=O)c1c(NC(=O)CC2SC(N)=NC2=O)sc(C)c1C", "note": "(stereo not drawn)", "hERG current change (%, negative = inhibition) at 10uM": 9.2}
{"smiles": "CN(C)C(=O)c1noc2cc([N+](=O)[O-])ccc12", "hERG current change (%, negative = inhibition) at 10uM": -12}
{"smiles": "CC(=O)O[C@H]1C[C@@H]2CC[C@@H]3[C@H](CC[C@]4(C)C(=O)CC[C@@H]34)[C@@]2(C)C[C@@H]1OC(C)=O", "hERG current change (%, negative = inhibition) at 10uM": 8.33}
{"smiles": "CN(CC(=O)Nc1ccccc1Cl)C(=O)COC(=O)C1=COCCO1", "hERG current change (%, negative = inhibition) at 10uM": 5.89}
{"smiles": "CSc1ccccc1NC(=O)CN(C)C(=O)c1ccc(-n2cccn2)cc1", "hERG current change (%, negative = inhibition) at 10uM": -17.6}
{"smiles": "CSc1nc2c(c(=O)[nH]1)C(c1ccc(F)cc1)CC(=O)N2", "note": "(stereo not drawn)", "hERG current change (%, negative = inhibition) at 10uM": 17.2}
{"smiles": "COCCN1C(=O)N[C@@H](CCc2ccccc2)[C@H](C(=O)OC)[C@H]1C", "hERG current change (%, negative = inhibition) at 10uM": 5.37}
{"smiles": "Cc1ccc(C(=O)C(O)C(c2ccc(C)cc2)N2CCCCC2)cc1", "note": "(stereo not drawn)", "hERG current change (%, negative = inhibition) at 10uM": -21}
{"smiles": "Cc1cc2c(cc(C(=O)NCCCN3CCOCC3)n2Cc2ccc(Cl)cc2)o1", "hERG current change (%, negative = inhibition) at 10uM": -36.4}
{"smiles": "O=C(NC1CCCCC1)c1sc(=S)n2c1[nH]c(=O)c1ccccc12", "hERG current change (%, negative = inhibition) at 10uM": 15.8}
{"smiles": "C/C(CCC1CC(C)OC1=O)=N/Nc1nc(-c2ccccc2)cs1", "note": "(stereo not drawn)", "hERG current change (%, negative = inhibition) at 10uM": -25.9}
{"smiles": "CC(C)C1CC(c2csc(N)n2)CCO1", "note": "(stereo not drawn)", "hERG current change (%, negative = inhibition) at 10uM": 18.8}
{"smiles": "CCCC(=O)Nc1ccc(C(=O)/C=C/c2ccc(SC)cc2)cc1", "hERG current change (%, negative = inhibition) at 10uM": 20.7}
{"smiles": "O=C(NC1CCCCC1)n1c(=O)oc2ccccc21", "hERG current change (%, negative = inhibition) at 10uM": 1.4}
{"smiles": "CCOC(=O)C1CCN(c2c(NCc3ccc(N(C)C)cc3)c(=O)c2=O)CC1", "hERG current change (%, negative = inhibition) at 10uM": -5.97}
{"smiles": "CC(=O)Nc1ccc(SCC(=O)Nc2ccccc2Oc2ccccc2)cc1", "hERG current change (%, negative = inhibition) at 10uM": -7.17}
{"smiles": "CCOc1ccc(N(CC(=O)NCC2CCCO2)S(=O)(=O)c2ccc(SC)cc2)cc1", "note": "(stereo not drawn)", "hERG current change (%, negative = inhibition) at 10uM": -41.7}
{"smiles": "COc1ccc(N2CCN(C(=O)c3cc(C4CC4)nn3-c3ccccc3)CC2)cc1", "hERG current change (%, negative = inhibition) at 10uM": -44.4}
{"smiles": "Cc1c(C(=O)NC(C)c2ccc(-n3ccnc3)cc2)cccc1[N+](=O)[O-]", "note": "(stereo not drawn)", "hERG current change (%, negative = inhibition) at 10uM": -74.1}
{"smiles": "COc1ccc(C(=O)NCCS(=O)(=O)N2CCN(C(=O)c3ccco3)CC2)cc1", "hERG current change (%, negative = inhibition) at 10uM": -38.6}
{"smiles": "COc1ccc(C(=O)NCCS(=O)(=O)N2CCc3ccccc3C2)cc1", "hERG current change (%, negative = inhibition) at 10uM": -3.39}
{"smiles": "COc1ccccc1NC(=O)CSc1nnc(-c2ccoc2C)n1CC1CCCO1", "note": "(stereo not drawn)", "hERG current change (%, negative = inhibition) at 10uM": 6.73}
{"smiles": "Cn1cc(C(=O)C(F)(F)F)c2ccccc21", "hERG current change (%, negative = inhibition) at 10uM": -3.79}
{"smiles": "CC(C)(C)C(=O)O/N=C(\\N)Cc1ccc(-c2csnn2)cc1", "hERG current change (%, negative = inhibition) at 10uM": 1.87}
{"smiles": "Cc1cc(N2CC(C)OC(C)C2)n2cc(-c3ccccc3)nc2n1", "note": "(stereo not drawn)", "hERG current change (%, negative = inhibition) at 10uM": -61.7}
{"smiles": "CN(C)[C@@H]1CCC[C@H]1OC(=O)C(c1ccccc1)c1ccccc1", "hERG current change (%, negative = inhibition) at 10uM": -65.2}
{"smiles": "CC1C(=O)C(C)C(c2ccc(Cl)cc2)NC1c1ccc(Cl)cc1.Cl", "note": "(stereo not drawn)", "hERG current change (%, negative = inhibition) at 10uM": 9.52}
{"smiles": "CCN1CCCC1CN(Cc1cc2cc(C)ccc2[nH]c1=O)C(=O)Nc1ccccc1OC", "note": "(stereo not drawn)", "hERG current change (%, negative = inhibition) at 10uM": -60}
{"smiles": "CCCCc1c(C(=O)O)cc(OC)cc1C(=O)O", "hERG current change (%, negative = inhibition) at 10uM": 10.6}
{"smiles": "CC(C)CNC(=O)C1CCN(S(=O)(=O)c2ccc3c(c2)OCCO3)CC1", "hERG current change (%, negative = inhibition) at 10uM": -0.124}
{"smiles": "COc1cc(NC(=O)c2cnc(NCc3ccccc3)nc2C)cc(OC)c1OC", "hERG current change (%, negative = inhibition) at 10uM": 19.3}
{"smiles": "Cc1ccc(S(=O)(=O)Nc2ccc(NC(=O)c3c(F)c(F)c(F)c(F)c3F)cc2)cc1", "hERG current change (%, negative = inhibition) at 10uM": -5.01}
{"smiles": "O=C(CN1CCN(S(=O)(=O)c2ccccc2)CC1)Nc1ccc(N2CCOCC2)cc1", "hERG current change (%, negative = inhibition) at 10uM": 7.31}
{"smiles": "O=c1[nH]c(N2CCCCCC2)nc2ncn(Cc3ccccc3)c12", "hERG current change (%, negative = inhibition) at 10uM": -21.7}
{"smiles": "CC1(C)C(C=C(Cl)Cl)C1C(=O)N(Cc1ccc(Cl)cc1)C1CCS(=O)(=O)C1", "note": "(stereo not drawn)", "hERG current change (%, negative = inhibition) at 10uM": -14.2}
{"smiles": "O=C(CNc1cccc2ccccc12)N/N=C/c1ccc(C(=O)O)cc1", "hERG current change (%, negative = inhibition) at 10uM": -0.125}
{"smiles": "Cc1cccc(NC(=O)CN2C(=O)NC3(CCCC3)C2=O)n1", "hERG current change (%, negative = inhibition) at 10uM": 6.63}
{"smiles": "Cc1cc(F)c(F)c(C(=O)N2CCC(C)CC2)c1Cl", "hERG current change (%, negative = inhibition) at 10uM": -3.97}
{"smiles": "Br.CCCCn1c(=N)n(CC(=O)c2ccc(Br)s2)c2ccccc21", "hERG current change (%, negative = inhibition) at 10uM": -52.8}
{"smiles": "Cc1ccccc1OCC(O)Cn1nnc2ccccc21", "note": "(stereo not drawn)", "hERG current change (%, negative = inhibition) at 10uM": 5.21}
{"smiles": "Cc1cc(C)cc(NC(=O)C(=O)NCC2CCCO2)c1", "note": "(stereo not drawn)", "hERG current change (%, negative = inhibition) at 10uM": -13}
{"smiles": "CC(C)(C)c1ccc(-c2nc(C#N)c(NCc3cccnc3)o2)cc1", "hERG current change (%, negative = inhibition) at 10uM": 10.6}
{"smiles": "COc1cc(C(=O)NC(C)C2CC3CCC2C3)cc(OC)c1OC", "note": "(stereo not drawn)", "hERG current change (%, negative = inhibition) at 10uM": 2.69}
{"smiles": "O=C(CC(=O)Nc1ccccc1F)Nc1ccccc1F", "hERG current change (%, negative = inhibition) at 10uM": 11.7}
{"smiles": "CN1CCC(=NNc2ccc(S(=O)(=O)N3CCOCC3)cc2[N+](=O)[O-])CC1", "hERG current change (%, negative = inhibition) at 10uM": 5.76}
{"smiles": "C#C[C@]1(O)CC[C@H]2[C@@H]3CCC4=Cc5oncc5C[C@]4(C)[C@H]3CC[C@@]21C", "hERG current change (%, negative = inhibition) at 10uM": -15.3}
{"smiles": "CCN(CC)CCNC(=O)CNC(=S)N(CCCN1CCOCC1)Cc1cccs1", "hERG current change (%, negative = inhibition) at 10uM": 15.7}
